Assay results as given in PubChem BioAssay AID686979 (National Center for Advancing Translational Sciences (NCATS), 2013).
“And” between values parts separate entries of the source, which are not always exact repeats. Identical values can stand only once. Hit rate of the full screen: of about 420,000 compounds, about 50,000 (12%) were called active. Inconclusive means that the source gave no clear call. Such entries were picked first, then a sample of the others. The call rests on the fitted dose curve; in most records, active means well fitted inhibition curve with a large enough effect; inconclusive means small, poorly fitted or top-dose-only effect; inactive means flat fitted curve, though single readings scatter. Where the call is inconclusive, the potency comes from a doubtful curve fit.

experiment: qHTS for Inhibitors of human tyrosyl-DNA phosphodiesterase 1 (TDP1): qHTS in cells in presence of CPT; conditions: chicken DT40 Tdp1-/-;hTDP1 cells + 20 nM CPT, ATP luminescence, 48 h; activity change, negative = growth inhibition: at 46.2 µM (top of the series) unless noted; further: nearly all actives have a fitted effect of over 55% in size
Outline: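 Chicken DT40 Tdp1-/- cells stably complemented with human TDP1 were seeded at 400 cells/well in medium containing 20 nM camptothecin, exposed to pin-transferred compounds, and grown at 37 °C for at least 48 hr. Viability was read as ATP luminescence.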
On the % scale 0 is the no-effect control and ±100 the full control effect; potency means the concentration at half of the fitted maximal effect; tags describe the fitted curve by direction and shape.

Structure (SMILES)	Potency	activity change, negative = growth inhibition
C=CCn1c(=O)/c(=C/c2ccc(C)o2)s/c1=C(/C#N)C(=O)c1ccccc1	inactive	
COc1ccc(NC(=O)N(C)C[C@H]2Oc3cc(Br)ccc3S(=O)(=O)N([C@H](C)CO)C[C@@H]2C)cc1	inconclusive: 11.6 µM [inhibitor, partial curve, poor fit]	
CCc1ccc(/C(C)=N/NC(=O)CNC(=O)/C=C/c2ccco2)cc1	inconclusive: 29.1 µM [inhibitor, single point]	
CCCn1c(C(CO)Nc2nc(C)cs2)nc2ccccc21 (configuration not stated)	inactive	
COc1ccc(OCCCC(=O)N2CCN(S(=O)(=O)c3cccc(F)c3)CC2)cc1	inconclusive: 20.6 µM [inhibitor, single point]	
CCCCc1ncc(CN2CCN(Cc3ccc(C)cc3)C(CCO)C2)[nH]1 (configuration not stated)	inactive	
COc1ccc(C(CC(=O)NCc2ccccc2Cl)N2Cc3ccccc3C2=O)cc1OC (configuration not stated)	inactive	
O=C1/C(=C\c2ccncc2)SC(=S)N1C1CCCCC1	inconclusive: 23.1 µM [inhibitor, single point]	
Cc1cccc(CN(Nc2ccccc2)c2ccccc2)n1	inactive	
Cc1ccc(-c2nn3c(C)nnc3s2)cc1NC(=O)c1ccc(Br)o1		inconclusive: -33.5% [inhibitor]
COc1ccccc1CCNC(=O)CCCn1nc(C)c2c(C)n(-c3ccc(C)cc3)nc2c1=O	inconclusive: 25.9 µM [inhibitor, single point]	
CCOC(=O)C1(C)C(=O)CC2c3nc4ccccc4cc3CN2C1=O (configuration not stated)	inconclusive: 20.6 µM [inhibitor, single point]	
Cc1ccc(CNC(=O)COC(=O)c2nc(-c3ccccc3)oc2C)cc1	inactive	
NS(=O)(=O)OCc1ccc(C(F)(F)F)cc1	inconclusive: 29.1 µM [inhibitor, single point]	
C[C@@H]1CCCCO[C@H](CN(C)C(=O)c2ccccc2)[C@@H](C)CN([C@H](C)CO)C(=O)c2cc(NC(=O)NC3CCCCC3)ccc2O1	inconclusive: 11.6 µM [inhibitor, partial curve]	
O=C(/C=C/NNC(=O)c1cccc(Br)c1)c1ccccc1	inconclusive: 20.6 µM [inhibitor, partial curve]	
CC(C)Oc1ccc(C(=O)CCN2CCCCC2)cc1	inconclusive: 29.1 µM [inhibitor, single point]	
Cc1cc(C)c(C(=O)NC2CC(C)(C)Cc3c2cnn3-c2ccccc2)o1 (configuration not stated)	inconclusive: 29.1 µM [inhibitor, single point]	
COC(=O)C1=C(C)N(C)C(=O)NC1c1ccc([N+](=O)[O-])o1 (configuration not stated)	inconclusive: 29.1 µM [inhibitor, single point]	
Cc1nc(C)c(C(=O)NCCC(c2ccccc2)c2ccccc2)o1	inconclusive: 20.6 µM [inhibitor, single point]	
COC(=O)[C@]12CCCCC=C1N(Cc1ccc3c(c1)OCO3)C(=O)[C@H](CC(=O)NCc1ccc(OC)c(OC)c1)C2	inconclusive: 20.6 µM [inhibitor, partial curve]	
CCN(c1ccccc1)S(=O)(=O)c1cc(NC(=O)Nc2ccccc2C#N)ccc1Cl	inactive	
Cc1cc(NC(=O)CCCSc2nc(-c3ccco3)cc(C(F)(F)F)n2)n(-c2ccccc2)n1	inconclusive: 29.1 µM [inhibitor, single point]	

Structure (SMILES)	Potency	activity change, negative = growth inhibition
CC(C)(C)OC(=O)NCCc1nnc(SCc2ccc(Cl)cc2Cl)o1	inconclusive: 14.6 µM [inhibitor, partial curve]	
CNc1cccccc1=S	active: 3.26 µM	
CCOP(=O)(OCC)c1nc(Cc2ccccc2)oc1NCc1ccccc1	inconclusive: 16.4 µM [inhibitor, single point]	
CCc1nn(-c2cc(Cl)ccc2OC)c2c1C(=O)CCC2	inconclusive: 29.1 µM [inhibitor, single point]	
CCOC(=O)c1c(C)oc2c(CC(=O)c3ccccc3)c(Cl)c(O)c(O)c12	inconclusive: 20.6 µM [inhibitor, single point]	
Cc1cc(C(=O)N2CCN(c3ccc([N+](=O)[O-])cc3)CC2)no1	inconclusive: 16.4 µM [inhibitor, single point]	
CCN(CC)C(=O)c1cccc(NC(=O)C2CCN(C(=O)c3cccs3)CC2)c1	inactive	
CC1CCCCN1C(=O)c1cnn2c1NC(=C1CC1)C=C2C(F)F (configuration not stated)	inactive	
COC(=O)[C@]12CCCCC=C1N(Cc1cccc3ccccc13)C(=O)[C@H](CC(=O)NCc1ccc(C)o1)C2	inconclusive: 29.1 µM [inhibitor, single point]	
CC(=O)Nc1cccc(-c2cc(NC(C)=O)c3ncc(-c4cccc(C(C)=O)c4)n3c2)c1	active: 23.1 µM	
N#Cc1cc2cc3c(cc2nc1N1CCCCC1)OCCO3	inconclusive: 20.6 µM [inhibitor, single point]	
Cc1ccc(OCC(=O)N/N=C\c2ccc(C)o2)c([N+](=O)[O-])c1	inconclusive: 14.6 µM [inhibitor, single point]	
Cc1ccc(NC(=O)CN2CCOCC2)c(Br)c1	inactive	
CCOC(=O)c1sc2ccccc2c1S(=O)(=O)N1CCN(c2cc(C)ccc2C)CC1	inconclusive: 23.1 µM [inhibitor, single point]	
Cc1ccc(C(C[N+](=O)[O-])c2c(C)cc3ccccn23)cc1 (configuration not stated)	active: 10.3 µM	
Cc1cc(C(=O)COc2ccccc2Cl)c(C)n1C1CC1	active: 13 µM	
O=C1C=C(c2cccc3c2Oc2ccccc2S3)C[C@@H](c2ccc(Cl)cc2)C1	inconclusive: 29.1 µM [inhibitor, single point]	
C/C(=N\NC(=O)C(O)(c1ccccc1)c1ccccc1)c1ccc(C)o1	inconclusive: 18.4 µM [inhibitor, single point]	
CC(Sc1nnc(C2CC2)n1C1CC1)C(=O)Nc1cccc(S(=O)(=O)N(C)C)c1 (configuration not stated)	inactive	
COc1cccc2sc(N(CCCN(C)C)C(=O)c3sc4ccccc4c3Cl)nc12	inconclusive: 25.9 µM [inhibitor, partial curve, poor fit]	
CC(OC(=O)C1CCCC1)C(=O)Nc1ncc(Cl)cc1Cl (configuration not stated)	inactive	
CCCOC1CCCN(C(=O)c2cc(Cl)c(Cl)cc2C(=O)O)C1 (configuration not stated)	inconclusive: 20.6 µM [inhibitor, single point]	
COc1ccccc1/C=C/C=C1\Oc2c(ccc(O)c2CN(C)C)C1=O	inconclusive: 29.1 µM [inhibitor, single point]	

Structure (SMILES)	Potency	activity change, negative = growth inhibition
COc1ccc(OCC(=O)Nc2ccc3nn(-c4ccc(OC)cc4)nc3c2)cc1		inconclusive: -30% [inhibitor]
CC(=O)OCC(=O)[C@@]1(O)CC[C@H]2[C@@H]3C[C@H](C)C4=CC(=O)C=C[C@]4(C)[C@H]3[C@@H](O)C[C@@]21C	inactive and inconclusive: 259 nM [inhibitor, full curve, poor fit]	
O=C(COc1ccc(Br)cc1CNC1CCCCC1)NCCc1ccccc1	active: 18.4 µM	
Cc1nc(=S)c2c([nH]1)-c1ccccc1CC21CCCCC1	active: 20.6 µM	
COc1cccc(NC(=O)Nc2cc(C(=O)O)ccc2N2CC3CC(C2)c2cccc(=O)n2C3)c1 (configuration not stated)	inactive	
C#C[C@]1(O)CCC2C3CCC4=CC(=O)CC[C@@H]4C3CC[C@@]21C (some centres not stated)	inconclusive: 14.6 µM [inhibitor, single point]	
COc1ccc(CCNC(=O)c2cc3c(=O)oc4ccc(C)cc4c3s2)cc1OC	inconclusive: 23.1 µM [inhibitor, single point]	
CS(=O)(=O)N1CCc2cc(C(=O)N3CCN(c4ccccc4F)CC3)ccc21	inconclusive: 16.4 µM [inhibitor, single point]	
COc1ccc(CN2[C@@H](CC(=O)O)c3ccc(/C=C/C(=O)O)cc3S2(=O)=O)cc1	inconclusive: 35.5 µM [inhibitor, single point]	
O=C(CCSCc1ccc(Cl)cc1)NCc1ccc(F)cc1Cl	inconclusive: 16.4 µM [inhibitor, single point]	
CN1CCN(C(=O)Cn2ncc3c4ccccc4n(Cc4ccc(Cl)cc4)c3c2=O)CC1	active: 23.1 µM	
CCOC(=O)N/N=C/c1cn(CCCOc2ccc(C)cc2)c2ccccc12	inconclusive: 25.9 µM [inhibitor, single point]	
O=C(CSc1nccn1Cc1ccc(F)cc1)NCc1ccc(F)cc1	inconclusive: 18.4 µM [inhibitor, single point]	
O=C(NCc1cccs1)c1cccnc1SCCS(=O)(=O)c1ccc(C(F)(F)F)cn1	inconclusive: 25.9 µM [inhibitor, single point]	
CCC(C)(C)C1CCc2[nH]nc(C(=O)NC3CCCC3)c2C1 (configuration not stated)	active: 16.4 µM	
Cc1ccc(NC(=O)c2c(NC(=O)c3ccccc3Cl)sc3c2CCC3)cc1	inconclusive: 7.31 µM [inhibitor, partial curve]	
CC(=O)Nc1ccc(NC(=O)C(C)OC(=O)C23CC4CC(CC(Cl)(C4)C2)C3)cc1 (configuration not stated)	inactive	
CCC(=O)NC(=S)Nc1ccc(NC(=O)c2ccc([N+](=O)[O-])cc2)cc1	inactive	
CCCCN(CC)S(=O)(=O)c1ccc(C(=O)N(CCCN(C)C)c2nc3cc(C)cc(C)c3s2)cc1	inconclusive: 9.2 µM [inhibitor, partial curve, poor fit]	
O=C(c1c(F)c(F)c(F)c(F)c1F)N1CCN(Cc2ccc3c(c2)OCO3)CC1	inactive	
COc1ccccc1CNc1nc2c(S(=O)(=O)c3ccccc3)nnn2c2ccc(Cl)cc12	inconclusive: 10.3 µM [inhibitor, partial curve]	
